# Measured values as given in the supplement of paper PMC11417369.
# ± gives the standard deviation of the averaged measurements. The list shows a part of the results.
# System: PfAP2-LT AP2 domain (GST-tagged)
# Test: gcPBM binding intensity (ln(normalized median fluorescence intensity)); higher = stronger DNA binding
# Procedure, shortened: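 Probes on an Agilent 4 × 180k array were primer-extended, double-stranded and 36 bp long, taken from intergenic genomic regions, with negative controls added. GST-tagged P. falciparum DNA-binding domains from E. coli, about 25 μg on average, were applied to the array for 1 h in 1× PBS containing 1% milk, 0.2 mg/ml BSA, 0.5% salmon testes DNA and 0.03% Triton X-100. Binding intensity, obtained after Alexa488 anti-GST antibody detection and a 488 nm scan, is the highest Masliner-normalised natural-log median intensity across replicate spots of either probe orientation.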
row,Sequence,gcPBM binding intensity (ln)
1,TAATATTGACTATATACACACATATATATATATATA [CACACA_site575],9.54 ± 0.29
2,CAGACATATTAAAAGAGTACATATATATATATATAT [XGTACX_site1158],9.98 ± 0.29
3,TGTTTATTACTCAGGTGTACTCAATTTTTTTTTTTT [XGTACX_site3470],8.72 ± 0.47
4,TATTTTTAAAATATAAGTAAAAAAATAATATAAACT [TGCATGCA_negctrl_site283],8.41 ± 0.49
5,ATATATATATATATATGTACATATACATATGTGCAA [XGTACX_site5604],9.615 ± 0.05
6,AAATGAATAAATAGGTCACACACAAATATATATAAA [CACACA_site8764],9.46 ± 0.54
7,ATTTATTTTATTTTCACACACAAAAATAAATATCCG [CACACA_site2414],9.17 ± 0.45
8,TAAATAATATCTATCACACACGCATAAATACAGATA [CACACA_site5449],9.22 ± 0.41
9,ATAAAAAAAAAAAAAAGTACACATATAAAAGTATTG [XGTACX_site8265],8.72 ± 0.49
10,TATAATGTATGTAGTGCACACCTCTATAATATATTA [CACACA_site8560],8.87 ± 0.4
11,ATTCTACCACGCGATATACACACTTGTAGACATCTT [CACACA_site188],9.2 ± 0.35
12,CGCAATTAAAATATGTGTCCTCATTTTATAACATTT [XGTACX_site5340],8.67 ± 0.47
13,AAATTTATGTGTGCCTGTACATATCAAAGATTTAAG [XGTACX_site8547],8.9 ± 0.24
14,TAATTTCTTAGGTATTGTACAAATATTATATGATAT [XGTACX_site256],8.64 ± 0.48
15,ATATATCTATAAAAGGCTTCCCACTTTTTTTGTCAA [TGCATGCA_negctrl_site332],8.56 ± 0.49
16,ATAATAAAAAAAATTAGTACATATATAAATATAAAT [XGTACX_site1937],8.64 ± 0.58
17,AGTACATTTTTGTGTGTGCACTAATATTATATACTT [GTGCAC_site9568],9.37 ± 0.43
18,GACATAGTCATATACTGTACTTTATATTATTGTGTA [XGTACX_site6636],8.8 ± 0.38
19,TTTTTTTTCATTGGTTGTACAATATTTATAATTCAC [XGTACX_site7036],8.82 ± 0.54
20,TACAGATATAAACACACACACATATATATATATATA [CACACA_site4846],10.05 ± 0.092
21,TTTTTTTTTTTTTTTTGTACTTATAAAAAATTTTTT [XGTACX_site1249],8.21 ± 0.57
22,AATCCCCACTTGTCAAGTACATATATCATGGATGAA [XGTACX_site3486],8.82 ± 0.28

row,Sequence,gcPBM binding intensity (ln)
1,GCCAAAATCTAATTTACACACTTATTAAATAATTAC [CACACA_site6251],8.69 ± 0.4
2,TATTTATAACAAAGGTTAAATTAAAACTAATCCACA [TGCATGCA_negctrl_site3],8.4 ± 0.3
3,TATATTAAAAAAGAGGTGCATTCGTAAGAGGTTAAA [GTGCAC_site9720],8.73 ± 0.46
4,TTTGTTAATATAAAAACACACAAAAATAACATAAAA [CACACA_site2619],8.73 ± 0.42
5,ATGTAATATTTACAACGTACAAATTATAAACATATT [XGTACX_site603],8.88 ± 0.35
6,TCATATTGGCTGTTCTGTACTTATAAGTTTTAAAGA [XGTACX_site5593],8.68 ± 0.35
7,AAAAAATTCATATATACACACACGCACATATATATA [CACACA_site4226],9.53 ± 0.13
8,GAATATATAAGATACACACACAAATTAAATATAAAA [CACACA_site2781],9.31 ± 0.3
9,AAAATATTTCATATATGTACTTAAAAAAAAAAAAAA [XGTACX_site5399],8.34 ± 0.43
10,TATTATATATATGTTGACATATTTGTACACTCCACT [TGCATGCA_negctrl_site200],9.08 ± 0.45
11,AAAAAAAAAAAAAACACACACACACGCATAAATATA [CACACA_site6217],9.95 ± 0.28
12,CACTTTTCTGGAAAAATTCCCACATTTTTTTATTAA [GTGCAC_negctrl_site322],8.42 ± 0.47
13,GTACAAAAAAAAATAAAATACATATATATATATATA [GTGCAC_negctrl_site364],9.56 ± 0.14
14,AAAAAAAAGTTGTATTGTACAAAAAAAAAAAAAAAA [XGTACX_site8334],8.62 ± 0.62
15,TCATAAAAACTAATACGTACTTAAAAATATGAACTT [XGTACX_site2939],8.67 ± 0.42
16,TCTTCATATAAGAACACATGCAGATTTTTATTATTG [TGCATGCA_site682],8.64 ± 0.4
17,GATAAAGTACTTTATACACACAAATATTTATTTATA [CACACA_site7795],8.93 ± 0.45
18,TTATGTAAAAAAAAAAAAAAAAAAAAAAAAAAAAAA [CACACA_negctrl_site984],8.07 ± 0.23
19,CATATAATATAATTATGTACATATATAATAATATAC [XGTACX_site5278],8.77 ± 0.42
20,AAAAAAAAAAAAAAACGTACACATATTATGTTATTT [XGTACX_site5264],8.97 ± 0.31
21,TATGTTCATCATAGCACACATATATAAATTACAACA [CACACA_site3533],8.91 ± 0.36
22,ATTTGGCATAGACACACACACACACGCACGCACATA [CACACA_site6424],10.3 ± 0.28
